By IC50 is meant the dose at which the fit gives 50% viability; a fit beyond the top or the lowest dose is shown as a bound at that dose. AUC is the area under the same curve over the 256-fold range up to the top dose, as a fraction; the more sensitive the line, the further below 1. The top dose, if marked as inferred, comes from the curve model; the source does not state it.
Key:
Assay in all cases: Viability of human cancer cell lines after 72 h of drug (GDSC screen)
[1] = compound: COc1ccc(-c2cc3nccn3c(Nc3ncccc3C(N)=O)n2)cc1OC [BAY 61-3606]; conditions: top dose 8 µM; top dose inferred
Procedure: (§1)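 Human cancer cell lines in 384-well plates, medium with 10% serum, drug for 72 h over a 256-fold dose range (nine 2-fold or five 4-fold steps up to the top dose). Adherent lines were fixed and stained with the nucleic acid dye Syto60, suspension lines read with resazurin; signal relative to control wells, capped at 0 and 100%. One two-parameter sigmoid per drug and line, fitted in a mixed model over all curves with the slope shared within a line.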

[2] = compound: CCN1CCC(n2cc(CNc3cc(Cl)c4ncc(C#N)c(Nc5ccc(F)c(Cl)c5)c4c3)nn2)CC1 [KIN001-266]; conditions: top dose 20 µM; top dose inferred
Procedure: as §1

[3] = compound: C=CC(=O)N1CCc2ccc(-n3c(=O)ccc4cnc5ccc(-c6cnn(C)c6)cc5c43)cc21 [QL-XII-47]; conditions: top dose 10.24 µM; top dose inferred
Procedure: as §1

[4] = compound: O=C1/C(=C/c2cccs2)CC/C1=C\c1cccs1 [CCT007093]; conditions: top dose 6.6 µM; top dose inferred
Procedure: as §1

Row | Cell Line | AUC [1] | IC50 [1] [µM] | AUC [2] | IC50 [2] [µM] | AUC [3] | IC50 [3] [µM] | AUC [4] | IC50 [4] [µM]
1 | HEL (acute myeloid leukaemia, semi-adherent) | 0.672 | 1.38 | 0.892 | 16.6 | 0.394 | 0.345 | 0.992 | > 6.6
2 | HGC-27 (stomach, adherent) | 0.718 | 1.85 | 0.872 | 14.3 | 0.638 | 1.44 | 0.97 | > 6.6
3 | HH (T-cell leukaemia, suspension) | 0.86 | > 8 | 0.673 | 4.48 | 0.551 | 0.923 | 0.955 | > 6.6
4 | HL-60 (acute myeloid leukaemia, suspension) | 0.887 | 7.37 | 0.884 | 17.7 | 0.763 | 3.34 | 0.985 | > 6.6
5 | HLE (liver, adherent) | 0.745 | 2.39 | 0.869 | 16.7 | 0.989 | > 10.2 | 0.975 | > 6.6
6 | HMV-II (melanoma, adherent) | 0.399 | 0.248 | 0.982 | > 20 | 0.853 | > 10.2 | 0.98 | > 6.6
7 | HN (head and neck, adherent) | 0.969 | > 8 | 0.988 | > 20 | 0.989 | > 10.2 | 0.982 | > 6.6
8 | HO-1-N-1 (head and neck, adherent) | 0.985 | > 8 | 0.973 | > 20 | 0.7 | 2.22 | 0.984 | > 6.6
9 | HO-1-u-1 (head and neck, adherent) | 0.793 | 3.49 | 0.904 | > 20 | 0.866 | 8.5 | 0.982 | > 6.6
10 | HOP-62 (lung adenocarcinoma, adherent) | 0.709 | 1.95 | 0.875 | 19.7 | 0.545 | 0.849 | 0.981 | > 6.6
11 | HOP-92 (large cell lung carcinoma, adherent) | 0.884 | > 8 | 0.979 | > 20 | 0.982 | > 10.2 | 0.956 | > 6.6
12 | HOS (osteosarcoma, adherent) | 0.793 | 2.99 | 0.98 | > 20 | 0.987 | > 10.2 | 0.976 | > 6.6
13 | HPAC (pancreas, adherent) | 0.851 | > 8 | 0.951 | > 20 | 0.754 | 4.76 | 0.894 | > 6.6
14 | HPAF-II (pancreas, adherent) | 0.948 | > 8 | 0.846 | > 20 | 0.777 | 5.46 | 0.957 | > 6.6
15 | HSC-2 (head and neck, adherent) | 0.808 | 3.76 | 0.964 | > 20 | 0.701 | 2.24 | 0.969 | > 6.6
16 | HSC-3 (head and neck, adherent) | 0.881 | 6.31 | 0.905 | > 20 | 0.702 | 2.15 | 0.99 | > 6.6
17 | HSC-4 (head and neck, adherent) | 0.872 | > 8 | 0.849 | > 20 | 0.787 | 6.12 | 0.84 | > 6.6
18 | HSC-39 (stomach, suspension) | 0.991 | > 8 | 0.984 | > 20 | 0.69 | 2 | 0.988 | > 6.6
19 | HT55 (large intestine, adherent) | 0.975 | > 8 | 0.985 | > 20 | 0.99 | > 10.2 | 0.99 | > 6.6
20 | HT (B-cell lymphoma, suspension) | 0.846 | 5.15 | 0.884 | 18.6 | 0.701 | 2.23 | 0.988 | > 6.6
21 | HT-3 (cervix, adherent) | 0.941 | > 8 | 0.965 | > 20 | 0.65 | 1.68 | 0.957 | > 6.6

Row | Cell Line | AUC [1] | IC50 [1] [µM] | AUC [2] | IC50 [2] [µM] | AUC [3] | IC50 [3] [µM] | AUC [4] | IC50 [4] [µM]
22 | HT-29 (large intestine, adherent) | 0.76 |  | 0.821 | 11.5 | 0.649 | 1.65 | 0.988 | > 6.6
23 | HT-115 (large intestine, adherent) | 0.962 | > 8 | 0.983 | > 20 | 0.988 | > 10.2 | 0.991 | > 6.6
24 | HT-144 (melanoma, adherent) | 0.785 | 3.85 | 0.929 | > 20 | 0.983 | > 10.2 | 0.97 | > 6.6
25 | HT-1080 (fibrosarcoma, adherent) | 0.791 | 3.19 | 0.883 | 17.5 | 0.854 | 6.81 | 0.989 | > 6.6
26 | HT-1197 (bladder, adherent) | 0.909 | > 8 | 0.938 | > 20 | 0.688 | 2.38 | 0.975 | > 6.6
27 | HTC-C3 (thyroid, adherent) | 0.9 | > 8 | 0.903 | > 20 | 0.565 | 0.983 | 0.966 | > 6.6
28 | HUTU-80 (digestive system, adherent) | 0.716 | 1.8 | 0.891 | 16.3 | 0.308 | 0.207 | 0.991 | > 6.6
29 | HeLa (cervix, adherent) | 0.893 | > 8 | 0.982 | > 20 | 0.86 | 7.93 | 0.987 | > 6.6
30 | Hep 3B2_1-7 (liver, adherent) | 0.741 | 2.44 | 0.967 | > 20 | 0.836 | 6.75 | 0.987 | > 6.6
31 | Hs633T (fibrosarcoma, adherent) | 0.71 | 1.72 | 0.864 | 12.5 | 0.563 | 0.919 | 0.992 | > 6.6
32 | Hs683 (glioma, adherent) | 0.874 | 7.93 | 0.973 | > 20 | 0.727 | 2.85 | 0.985 | > 6.6
33 | Hs766T (pancreas, adherent) | 0.922 | > 8 | 0.956 | > 20 | 0.948 | > 10.2 | 0.974 | > 6.6
34 | Hs939-T (melanoma, adherent) | 0.939 | > 8 | 0.852 | 17.8 | 0.949 | > 10.2 | 0.986 | > 6.6
35 | Hs940-T (melanoma, adherent) | 0.744 | 2.97 | 0.984 | > 20 | 0.604 | 1.31 | 0.976 | > 6.6
36 | Hs-578-T (breast, adherent) | 0.96 | > 8 | 0.986 | > 20 | 0.934 | > 10.2 | 0.984 | > 6.6
37 | HuCCT1 (biliary tract, adherent) | 0.857 | 7.7 | 0.792 | 10.2 | 0.515 | 0.707 | 0.958 | > 6.6
38 | HuH-7 (liver, adherent) | 0.907 | > 8 | 0.985 | > 20 | 0.926 | > 10.2 | 0.987 | > 6.6
39 | HuO9 (osteosarcoma, adherent) | 0.943 | > 8 | 0.976 | > 20 | 0.867 | > 10.2 | 0.975 | > 6.6
40 | HuO-3N1 (osteosarcoma, adherent) | 0.832 | 7.51 | 0.981 | > 20 | 0.727 | 3.54 | 0.946 | > 6.6
41 | HuP-T3 (pancreas, adherent) | 0.912 | > 8 | 0.808 | 13.3 | 0.764 | 4.54 | 0.982 | > 6.6
42 | HuP-T4 (pancreas, adherent) | 0.848 | 6.52 | 0.763 | 7.61 | 0.484 | 0.577 | 0.967 | > 6.6

Row | Cell Line | AUC [1] | IC50 [1] [µM] | AUC [2] | IC50 [2] [µM] | AUC [3] | IC50 [3] [µM] | AUC [4] | IC50 [4] [µM]
43 | IA-LM (large cell lung carcinoma, adherent) | 0.752 | 2.95 | 0.851 | 18.4 | 0.761 | 4.05 | 0.985 | > 6.6
44 | IGR-1 (melanoma, adherent) | 0.858 | 5.3 | 0.739 | 5.43 | 0.68 | 1.9 | 0.978 | > 6.6
45 | IGR-37 (melanoma, adherent) | 0.876 | 6.77 | 0.835 | 11.5 | 0.843 | 6.36 | 0.987 | > 6.6
46 | IHH-4 (thyroid, semi-adherent) | 0.505 | 0.513 | 0.889 | 15 | 0.671 | 1.72 | 0.992 | > 6.6
47 | IM-95 (stomach, adherent) | 0.701 | 1.92 | 0.853 | 17.3 | 0.761 | 3.86 | 0.969 | > 6.6
48 | IMR-5 (neuroblastoma, adherent) | 0.862 | 5.15 | 0.884 | 15.8 | 0.437 | 0.444 | 0.984 | > 6.6
49 | IPC-298 (melanoma, adherent) | 0.975 | > 8 | 0.875 | 19.2 | 0.955 | > 10.2 | 0.971 | > 6.6
50 | IST-MEL1 (melanoma, adherent) | 0.798 | 4.66 | 0.842 | 18.2 | 0.779 | 5.03 | 0.955 | > 6.6
51 | IST-MES1 (mesothelioma, adherent) | 0.968 | > 8 | 0.958 | > 20 | 0.868 | 9.45 | 0.98 | > 6.6
52 | IST-SL1 (small cell lung carcinoma, semi-adherent) | 0.856 | 6.76 | 0.731 | 5.81 | 0.464 | 0.51 | 0.967 | > 6.6
53 | J82 (bladder, adherent) | 0.649 | 1.29 | 0.946 | > 20 | 0.954 | > 10.2 | 0.966 | > 6.6
54 | JAR (urogenital system, adherent) | 0.988 | > 8 | 0.98 | > 20 | 0.652 | 1.68 | 0.982 | > 6.6
55 | JEG-3 (urogenital system, adherent) | 0.97 | > 8 | 0.985 | > 20 | 0.98 | > 10.2 | 0.98 | > 6.6
56 | JHH-1 (liver, adherent) | 0.985 | > 8 | 0.798 | 10.5 | 0.836 | 7.64 | 0.973 | > 6.6
57 | JHH-2 (liver, adherent) | 0.978 | > 8 | 0.869 | > 20 | 0.483 | 0.574 | 0.976 | > 6.6
58 | JHH-4 (liver, adherent) | 0.894 | > 8 | 0.837 | 13.3 | 0.987 | > 10.2 | 0.987 | > 6.6
59 | JHH-6 (liver, adherent) | 0.834 | 5.31 | 0.873 | 19.8 | 0.986 | > 10.2 | 0.986 | > 6.6
60 | JHH-7 (liver, adherent) | 0.778 | 3.03 | 0.876 | 17.8 | 0.431 | 0.419 | 0.978 | > 6.6
61 | JHU-011 (head and neck, adherent) | 0.831 | 4.94 | 0.866 | 17.3 | 0.643 | 1.58 | 0.968 | > 6.6
62 | JHU-022 (head and neck, adherent) | 0.982 | > 8 | 0.981 | > 20 | 0.893 | > 10.2 | 0.966 | > 6.6
